# Assay results from paper PMC12040169 (PLOS Biology, 2025).
# The other results are listed elsewhere or left out.
# Test system: T1, C. trachomatis L2/434/Bu expressing GFP (CTL2-GFP)
# T1 construct: L2/434/Bu GFP intracellular growth in HeLa cells
# Parameters: species or system HeLa; C. trachomatis total inclusion area by high-content imaging, normalised to DMSO
# Conditions: total inclusion area; 28.5 h, 10 µM; inhibitor
# How it was run: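 Following bulk GFP and resorufin fluorescence reads, infected cells were fixed, Hoechst-stained and imaged on a high-content platform. Inclusion total area and number per well served as growth proxies; nuclei counts indicated host viability. MICs were derived as for the fluorescence assay.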
row,Compound,% of control remaining
1,CN(C(=O)c1ccco1)c1nc2c(s1)CCc1c-2cnn1C [CBK281928],57.3061
2,CC(=O)Nc1cccc(-n2nnnc2SC2CCCCC2=O)c1 (stereo not shown) [CBK304600],20.591
3,Cc1nn(-c2ccc(F)cc2)c2[nH]c(=O)c(CNC(C)C)cc12 [CBK283119],78.0834
4,COc1ccc2c(c1)sc1ncc(C#N)n12 [CBK016716],80.1299
5,COc1cc(/C=C2/SC(=S)N(CC(=O)O)C2=O)cc(Br)c1OCc1ccccn1 [CBK265598],92.8376
6,COc1ccc(Br)cc1C(=O)NC(=S)Nc1cc(Cl)c(O)c(Cl)c1 [CBK265979],78.8413
7,CC(C)C(NS(=O)(=O)c1ccc(Oc2ccccc2Cl)cc1)C(=O)O (stereo not shown) [CBK267195],120.441
8,COC(=O)CCc1ccc(S(=O)(=O)N2CCCN(Cc3ccc(Cl)c(C(F)(F)F)c3)CC2)cc1 [CBK062995],37.3616
9,O=C(O)c1ccc(C(=O)O)c2c(-c3ccc(C(=O)O)c4c(C(=O)O)ccc(C(=O)O)c34)ccc(C(=O)O)c12 [CBK261267],98.0305
10,Cn1c(-c2ccccc2)cnc1NC(=O)C1CCN(S(=O)(=O)c2ccc(F)cc2)C1 (stereo not shown) [CBK285709],91.3434
11,CCO[C@H]1CN(C)C[C@@H]1NC(=O)c1cccc2c1NCCC2 [CBK307269],68.5108
12,Cc1cccc(OCC(=O)Nc2ncccc2OCCCC#N)c1 [CBK305918],72.0294
13,COc1ccc(-c2cc(C(F)(F)F)nc(SCC(=O)Nc3cccnc3)n2)cc1OC [CBK266148],116.469
14,COc1cccc(OCCOc2nsnc2N2CCNCC2)c1 [CBK200007],95.0775
15,Fc1ccc(CNc2cncc(-c3cc4ccccc4o3)n2)cc1 [CBK066005],112.632
16,Cc1cc(C)cc(N(CC(=O)Nc2ccc(C)c(Cl)c2)S(=O)(=O)c2ccccc2)c1 [CBK264109],79.6543
17,COc1ccc(-c2ncc(OCC3CCCN3C)nc2N)c(OC)c1 (stereo not shown) [CBK145091],85.4259
18,CCOC(=O)CCNC(C)C1COc2ccccc2O1 (stereo not shown) [CBK074284G],94.2256
19,Cc1ccccc1-n1ccn(S(=O)(=O)c2ccccc2)c1=O [CBK106567],109.78
20,NS(=O)(=O)c1ccc(NCc2cc(Cl)ccc2OCc2ccc(F)cc2)cc1 [CBK268196],102.911
21,CC(=O)NCCSc1nccnc1NC(C)C [CBK105289],76.651
22,CC(C)(O)C#Cc1ccc(C(=O)N2CCN(C/C=C/c3ccccc3)CC2)s1 [CBK267007],90.9082
23,O=[N+]([O-])c1cc(C(F)(F)F)ccc1N(CCO)CCO [CBK262238],95.7216
24,CN(C)C(=O)c1ccc(-c2ncc(OCCN3CCCC3=O)nc2N)cc1 [CBK145184],107.205
25,Cc1nn(CCn2cncc2-c2cnn(C)c2)c(C)c1C [CBK281783],118.057
26,CCCN1CC(NS(=O)(=O)c2ccnn2CCC)CC1=O (stereo not shown) [CBK306598],68.7143
27,O=C(O)c1cc(-c2ccc(/C=C3\SC(=S)N(Cc4cccnc4)C3=O)o2)ccc1Cl [CBK264712],100.981

row,Compound,% of control remaining
1,Cc1cn2c(=O)c(C(=O)Nc3ccccc3C)cnc2s1 [CBK287710],101.505
2,O=C(c1cn2ccccc2n1)N1CCC(c2ccccc2)C1 (stereo not shown) [CBK281850],94.3021
3,Oc1cccc(Sc2cncc(N3CCCC3)n2)c1 [CBK093796],99.3757
4,COC(=O)CCc1ccc(S(=O)(=O)N2CCCN(Cc3cccc(C(F)(F)F)c3)CC2)cc1 [CBK062983],80.2978
5,CCN(Cc1cccs1)C(=O)NC1CCCc2c1cnn2CCO (stereo not shown) [CBK305768],100.403
6,O=S(=O)(Nc1cccc(O)c1)c1ccc(OC(F)(F)F)cc1 [CBK043822],97.3647
7,Cc1ccc2c(C)c(-c3cncn3C(C)CN3CCOCC3)oc2c1 (stereo not shown) [CBK281796],101.754
8,CN1CCN(C(=O)CNS(=O)(=O)c2ccc(Br)cc2)CC1 [CBK034478],78.7021
9,Cc1cc(C)n2nc(CCCOC(=O)c3ccn(C(C)C)n3)nc2n1 [CBK305272],40.4775
10,CN(C)C(=O)CN1CCN(CCc2ccccc2)CC1 [CBK126455],97.4629
11,COc1ccc(Br)cc1/C=N/NC(=O)CC1C(=O)NN=C1C (stereo not shown) [CBK263359],90.5731
12,COCCOC(=O)C1=C(C)NC2=C(C(=O)CC(c3ccc(OC)cc3)C2)C1c1ccc(F)cc1 (stereo not shown) [CBK293921],78.4115
13,O=C(CSc1nnc(Cc2cccc3ccccc23)n1-c1ccccc1)NC1CC1 [CBK267382],108.228
14,CCC(C)(NC=O)C(=O)Nc1ccccc1C(=O)O (stereo not shown) [CBK287177],90.2901
15,COc1ccc(S(=O)(=O)N2CCC(C(=O)N3CCN(Cc4ccc5c(c4)OCO5)CC3)CC2)cc1Cl [CBK267614],100.588
16,COc1ccc(C(=O)Nc2nc3ccc(NC(C)=O)cc3s2)cc1OC [CBK287311],103.143
17,O=C(CSc1ccc2nnc(-c3ccccc3)n2n1)Nc1nccs1 [CBK287516],68.3894
18,CC(C)NC(=O)[C@H]1O[C@H](CCN2CCN(c3ccccc3)CC2)CC[C@@H]1O [CBK288719],100.531
19,Cc1cc(=O)n2c3c(cc(S(=O)(=O)NCC4CCCO4)cc13)CC2 (stereo not shown) [CBK307595],47.0497
20,CCCS(=O)(=O)n1ccn(-c2cccc(C(F)(F)F)c2)c1=O [CBK106585],88.7058
21,N#Cc1ccc(CN2CCOC3(CCN(C(=O)OCc4ccccc4)CC3)C2)cc1 [CBK161103T],35.4565
22,CCCc1ccc(S(=O)(=O)n2ccn(-c3ccc(Oc4ccccc4)cc3)c2=O)cc1 [CBK106648],93.7995
23,O=C(CSc1ncnc2ccccc12)NCc1ccco1 [CBK287509],90.855
24,Cc1ccccc1OCc1nnc(SCC(=O)N2CCOCC2)n1C [CBK265850],84.9816
25,COc1ccc(C(c2ccccc2C)N(C)C(=O)C2CCNCC2)cn1 (stereo not shown) [CBK074124],35.272
26,O=C(O)COc1ccc(Br)cc1C(c1c[nH]c2ccccc12)c1c[nH]c2ccccc12 [CBK265720],105.364
27,Brc1ccc(Nc2ncnc3[nH]cnc23)cc1 [CBK287386],101.622

row,Compound,% of control remaining
1,Cc1cc([N+](=O)[O-])cc[n+]1[O-] [CBK261014],70.7263
2,CC(C)(C)OC(=O)N1CCC[C@H]1C(=O)c1cccnc1 [CBK284280],41.6692
3,COc1ccc(-c2cc(C(=O)N3CCC(S(C)(=O)=O)C3)cnc2-c2ccccc2)cn1 (stereo not shown) [CBK036706],120.185
4,Cc1nc(C2CN(c3ccnc4c(F)cccc34)CCO2)no1 (stereo not shown) [CBK304464],16.9741
5,Cc1ccc(-c2ncc(OCCN(C(C)C)C(C)C)nc2N)cc1C [CBK145150],100.325
6,O=C1CSC2(C(=O)Nc3ccccc32)N1c1ccc([N+](=O)[O-])cc1 (stereo not shown) [CBK026035],78.2
7,Cc1[nH]nc2nc(-c3cc(Br)ccc3O)cc(C(=O)O)c12 [CBK286834],132.287
8,O=S(=O)(Nc1nnn[nH]1)c1cccc(C(F)(F)F)c1 [CBK062377],103.769
9,Cc1ccc2nc(-c3ccc4c(c3)CC(C)N4S(C)(=O)=O)cn2c1 (stereo not shown) [CBK285184],89.2205
10,O=C(O)CCc1nc2[nH]c(C(F)F)cc(=O)n2n1 [CBK286880],87.5929
11,c1ccc(-c2nnc(-c3ccco3)c(-c3ccco3)n2)cc1 [CBK286196],138.499
12,COc1ccc(CN2C(=O)CC3(C2=O)C(=O)N(C)c2ccccc23)cc1OC (stereo not shown) [CBK075450],91.791
13,CC(C)C(=O)N1CC2(CCN(Cc3ncc[nH]3)CC2)c2ccccc21 [CBK126731],76.61
14,COc1ccc(CCNC(=O)CSC(C)C(=O)O)cc1 (stereo not shown) [CBK297493],104.106
15,CC(=O)Nc1ccc(S(=O)(=O)NC2(C(F)(F)F)NC(=O)N(c3ccc(Cl)cc3)C2=O)cc1 (stereo not shown) [CBK267689],121.228
16,COc1ccc(OC(=O)c2cc(S(=O)(=O)N3CCCCCC3)ccc2Cl)cc1 [CBK264562],110.864
17,Cc1ccc2nc(SCC(=O)Nc3ccccc3Br)c(C#N)cc2c1 [CBK068169],91.4327
18,O=C(NO)c1nccnc1-c1ccc(COc2ccccc2)cc1 [CBK050841],102.191
19,O=C(CN1CCC(Oc2nccnc2OCc2ccc(Cl)c(Cl)c2)CC1)Nc1ccccc1 [CBK153783],69.5433
20,O=C(N/N=C/c1ccc(OC(=O)c2ccc([N+](=O)[O-])cc2)cc1)c1cccnc1 [CBK262146],105.112
21,Cc1ccc(N2C(=O)CC(Sc3ncccc3C(=O)O)C2=O)c(C)c1 (stereo not shown) [CBK269377],62.6199
22,COc1ccc(S(=O)(=O)N2CCC(C(=O)NC3(C(=O)O)CCCCC3)CC2)cc1OC [CBK295646],104.535
23,CCOc1ccnc(N2CCN(C(=O)CCc3ccsc3)CC2)n1 [CBK304942],94.6218
24,CCC(=O)N1CCCc2cc(C(O)CN3CCN(c4cccc(OC)c4)CC3)ccc21 (stereo not shown) [CBK286476],75.0974
25,O=C(c1c[nH]c(=O)n(-c2ccc(F)cc2)c1=O)N1CCc2ccccc21 [CBK287554],104.811
